PubChem BioAssay (NCATS)
Some of the results follow. These are further read-outs of the screen, such as a control signal, another cell line or another target. No call is given for them. The list favours compounds with an active or inconclusive main result. The note in brackets gives the kind of curve behind each potency; many fits are weak.

Assay: qHTS Assay for Lipid Storage Modulators (AID 1519)
Conditions: Drosophila S3 cells, BODIPY lipid droplet/cell ratio, laser cytometry, cells loaded with oleic acid
Outline: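 Cells seeded at 5,000 per well were treated with compounds over a concentration series and loaded with oleic acid (400 uM, as added). Lipid droplet fluorescence (488 nm excitation, 500-530 nm channel) was read by laser-scanning cytometry and normalized to 20 uM Triacsin C.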

[1] = measured here: cell count channel max response
[2] = measured here: lipid (BODIPY) channel AC50
[3] = measured here: lipid channel max response
[4] = measured here: cell number channel AC50
Tags describe the fitted curve by direction and shape.

Row | Compound | max response [1] [%] | AC50 [2] | max response [3] [%] | AC50 [4]
1 | OCC1OC(n2cnc3cc(Cl)c(Cl)cc32)C(O)C1O (configuration not stated) | -5.73 | 3.98 µM [rising, partial curve] | -0.897 | 
2 | O=C(NC(=O)c1c(F)cccc1F)Nc1ccc(Cl)cc1 | 12.8 | 3.16 µM [rising, partial curve, poor fit] | 25.9 | 
3 | C[C@H]1CCCC=CC2C[C@H](O)C[C@@H]2[C@H](O)/C=C\C(=O)O1 (some centres not stated) | 17.7 | 7.08 µM [rising, full curve, poor fit] | 30.1 | 
4 | COc1cc2occc2c2oc(=O)ccc12 | 26.5 | 4.47 µM [rising, full curve] | 41.3 | 
5 | COC(=O)[C@]1(C)CC[C@@]2(C)CC[C@@]3(C)C4=CCc5c(cc(O)c(O)c5C)[C@]4(C)CC[C@@]3(C)C2C1 (some centres not stated) | -81.3 |  | -103 | 28.2 µM [falling, single point]
6 | C=CCN1CC[C@]23CCCCC2[C@H]1Cc1ccc(O)cc13 (some centres not stated) | 56 |  | 57.7 | 39.8 µM [rising, single point]
7 | N#Cc1cccc(NC(=O)N2CCCC3(CCN(C(=O)Oc4ccccc4)CC3)C2)c1 | 11.9 | 0.447 µM [rising, full curve, poor fit] | 27.8 | 
8 | CC(=O)OC1C2CCC3C1(CC(O)[C@@]1(O)[C@@H](CC(O)C1(C)C)[C@]3(C)O)C[C@@]2(C)O (some centres not stated) | 18.4 | 35.5 µM [rising, single point] | 31.7 | 
9 | CN1CCN(C(=O)OC2c3nccnc3C(=O)N2c2ccc(Cl)cn2)CC1 (configuration not stated) | 24 | 5.01 µM [rising, full curve] | 31.9 | 
10 | CC(=O)N1CCN(c2ccc(OCC3CO[C@@](Cn4ccnc4)(c4ccc(Cl)cc4Cl)O3)cc2)CC1 (some centres not stated) | -63.4 |  | -81.1 | 15.8 µM [falling, partial curve]
11 | N#CC(C#N)=Cc1ccc([N+](=O)[O-])c(O)c1 | 62.3 | 22.4 µM [falling, partial curve, poor fit] | 44.8 | 
12 | O=C(c1ccco1)N1CCC2(CC1)CN(Cc1ccncc1)C2 | 19.7 | 5.01 µM [rising, partial curve, poor fit] | 32.6 | 
13 | C[C@@]12C=CC(=O)C=C1CCC1C2CC[C@]2(C)C(=O)CCC12 (some centres not stated) | 24.1 | 0.224 µM [rising, full curve] | 33.6 | 
14 | CN(CCC(N)CC(=O)NC1C=CC(n2ccc(N)nc2=O)OC1C(=O)O)C(=N)N (configuration not stated) | 21.1 | 4.47 µM [rising, partial curve] | 47.9 | 
15 | OCC(O)Cc1ccc2c(c1)OCO2 (configuration not stated) | 17.6 | 39.8 µM [rising, single point] | 31.7 | 
16 | CCCCC/C=C\C/C=C\C/C=C\C/C=C\CCCC(=O)Nc1ccc(O)cc1 | 19.7 | 39.8 µM [rising, single point] | 33.2 | 
17 | COc1ccc(C[C@H]2NC[C@H](O)[C@@H]2OC(C)=O)cc1 | 38.3 |  | -10.2 | 0.126 µM [rising, full curve, poor fit]
18 | NC1C[C@H]1c1ccccc1 (some centres not stated) | 39.3 | 39.8 µM [rising, single point] | 64.7 | 
19 | CN(C)C1C(=O)C(C(N)=O)=C(O)[C@@]2(O)C(=O)C3=C(O)c4c(O)ccc(Cl)c4[C@](C)(O)C3CC12 (some centres not stated) | 22.1 | 10 µM [rising, partial curve] | 47.4 | 
20 | Cc1[nH]c2ccc(O)cc2c1CCN | 43 | 39.8 µM [rising, single point] | 40.9 | 
21 | O=C(Oc1ccccc1)N1CCC[C@@]2(CCN(C(c3ccccc3)c3ccccc3)C2)C1 | 23 | 0.0708 µM [rising, full curve, poor fit] | 33.2 | 
22 | CC1CC[C@@]2(NC1)OC1CC3C4CC[C@@H]5CC(O)CC[C@@]5(C)C4CC[C@]3(C)C1C2C (some centres not stated) | 17.9 | 39.8 µM [rising, single point] | 31.8 | 
23 | N[C@@H](Cn1oc(=O)[nH]c1=O)C(=O)O | 23.8 |  | 20.6 | 0.0112 µM [falling, full curve, poor fit]
24 | O=[N+]([O-])OC1CO[C@H]2C(O[N+](=O)[O-])COC12 (some centres not stated) | 25.5 | 8.91 µM [rising, partial curve] | 41.9 | 
25 | NCC(CC(=O)O)c1ccc(Cl)cc1 (configuration not stated) | -42.7 |  | -45.2 | 44.7 µM [falling, partial curve, poor fit]

Row | Compound | max response [1] [%] | AC50 [2] | max response [3] [%] | AC50 [4]
26 | CC1CCC2C(C)C(=O)OC3OC4(C)CCC1C32OO4 (configuration not stated) | 84.9 |  | 106 | 14.1 µM [rising, partial curve, poor fit]
27 | O=C(Nc1ccccc1)N1CCCC2(CCN(C(=O)Oc3ccccc3)CC2)C1 | 19.8 | 0.794 µM [rising, full curve] | 29.8 | 
28 | CC(CO)NC(=O)C1C=C2c3cccc4[nH]cc(c34)C[C@H]2N(C)C1 (some centres not stated) | 26.1 | 35.5 µM [rising, single point] | 44.4 | 
29 | CC(C)CN1CCCC2(CCN(C(=O)Oc3ccccc3)CC2)C1 | 18.9 | 2.82 µM [rising, full curve, poor fit] | 31.1 | 
30 | CC(=O)Oc1ccc(Cl)c2cccnc12 | -9.31 | 14.1 µM [falling, partial curve] | -38.2 | 
31 | C[N+]1(C)C2CC(OC(=O)C(CO)c3ccccc3)CC1C1OC12 (configuration not stated) | 18.4 | 12.6 µM [rising, partial curve] | 31.3 | 
32 | CC(=O)Oc1ccc(/C=C/c2cc(OC(C)=O)cc(OC(C)=O)c2)cc1 | 5.96 | 8.91 µM [rising, single point] | 8.45 | 
33 | O=[N+]([O-])c1ccc(O)c([N+](=O)[O-])c1 | -14.6 | 25.1 µM [falling, single point] | -35.8 | 
34 | CC1(C)C(=O)[C@@H]2OC2[C@@]2(C)C1CC(O)[C@]1(C)C2CC[C@@]2(C)C(c3ccoc3)OC(=O)C3OC312 (some centres not stated) | 21.8 | 0.355 µM [rising, full curve, poor fit] | 25.6 | 
35 | CNc1ccc2oc(C[C@H]3O[C@]4(CC[C@H]3C)O[C@H]([C@H](C)C(=O)c3ccc[nH]3)[C@H](C)C[C@H]4C)nc2c1C(=O)O | 96.3 |  | -83.6 | 2.82 µM [rising, full curve]
36 | COc1ccc(C(=O)O)cc1OC | 21.5 | 39.8 µM [rising, single point] | 30.8 | 
37 | C=CC1CN2CCC1CC2C(O)c1ccnc2ccccc12 (configuration not stated) | 20.9 | 25.1 µM [rising, partial curve] | 32.3 | 
38 | O=C(Oc1ccccc1)N1CCC2(CCN(Cc3nccs3)CC2)CC1 | 25.5 | 1.26 µM [rising, full curve, poor fit] | 33.2 | 
39 | CCCN(C/C=C\I)[C@@H]1CCc2ccc(O)cc2C1 | 33.2 |  | 37 | 5.01 µM [rising, full curve, poor fit]
40 | CC(=O)Nc1cc([As](=O)(O)O)ccc1O | 29.4 | 35.5 µM [rising, single point] | 43.2 | 
41 | COc1c2c(c(CC=C(C)C)c3oc(=O)c(-c4ccc(O)cc4)c(O)c13)OC(C)(C)C=C2 | 28.9 | 39.8 µM [rising, partial curve, poor fit] | 39.2 | 
42 | COc1ccc2c(c1O)-c1c(OC)c(OC)cc3c1[C@H](C2)N(C)CC3 | 92.5 | 39.8 µM [rising, partial curve, poor fit] | 116 | 39.8 µM [rising, single point]
43 | CCN(CC)c1ncnc2c1ncn2[C@@H]1O[C@@H](COP(=O)(O)OP(=O)(O)C(Br)(Br)P(=O)(O)O)[C@H](O)[C@H]1O | 15.5 | 0.0501 µM [rising, full curve, poor fit] | 26.4 | 
44 | CC(C)[C@@]1(NC(=O)[C@@H]2C[C@@H]3c4cccc5[nH]cc(c45)C[C@H]3N(C)C2)O[C@@]2(O)[C@@H]3CCCN3C(=O)[C@H](Cc3ccccc3)N2C1=O | 58 | 3.16 µM [rising, full curve, poor fit] | 51.5 | 5.01 µM [rising, full curve]
45 | Cn1c(=O)c2[nH]cnc2n(C)c1=O | -4.56 | 3.55 µM [falling, full curve, poor fit] | -4.53 | 3.55 µM [falling, full curve, poor fit]
46 | O=C(Oc1ccccc1)N1CCC2(CCCN(Cc3nccs3)C2)CC1 | 16.8 | 0.0178 µM [rising, full curve] | 21.3 | 0.0141 µM [rising, full curve]
47 | CC(=O)C1=C(O)[C@@H]2[C@@H]3c4c[nH]c5cccc(c45)C[C@@H]3C(C)(C)N2C1=O | 74.3 | 28.2 µM [rising, partial curve, poor fit] | 87.9 | 31.6 µM [rising, partial curve, poor fit]
48 | C[C@H]1O[C@H](O[C@H]2[C@H](O)[C@@H](O)[C@@H](O)[C@H](O)[C@@H]2O)[C@@H](N)C[C@@H]1NC(=N)C(=O)O | 27.5 | 39.8 µM [rising, partial curve] | 43.4 | 
49 | CCCCCCCC/C=C\CCCCCCCC(N)=O | 31.2 | 35.5 µM [rising, single point] | 40.2 | 31.6 µM [rising, single point]
50 | COc1ccc2c(c1OC)C(=O)O[C@@H]2C1c2cc3c(cc2CCN1C)OCO3 (some centres not stated) | 100 | 1.41 µM [rising, full curve] | 131 | 1.58 µM [rising, full curve]
